# In the supplement of paper PMC12217912:
# The other results are listed elsewhere or left out. The full chains were built here from the parent and the listed change. Values near 0.05 are background.
# B1: TEV protease; numbered along this chain (parent)
# chain: MGESLFKGPRDYNPISSSICHLTNESDGHTTSLYGIGFGPFIITNKHLFRRNNGTLVVQSLHGVFKVKDTTTLQQHLVDGRDMIIIRMPKDFPPFPQKLKFREPQREERICLVTTNFQTKSMSSMVSDTSCTFPSGDGIFWKHWIQTKDGQCGSPLVSTRDGFIVGIHSASNFTNTNNYFTSVPKNFMELLTNQEAQQWVSGWRLNADSVLWGGHKVFMVKPEEPFQPVKEATQL
# Variants of: B1
# Assay: raw area under fraction-flipped curve 0-4 h after induction (AUC4h, not background-subtracted), DNA-recorder readout of cleavage of the substrate (dimensionless); higher = more cleavage of the substrate by the protease variant
# Conditions: temperature: 34 °C; time window: 0-4 h after rhamnose induction
# Experimental: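 In vivo DNA recorder in E. coli TOP10(DE3) ΔrhaA at 34 °C. Each TEVp single-site mutant (parent TEVp 0) is paired with a single-site variant of the 7-mer TEVs (canonical ENLYFQ|S). The substrate sits between flexible linkers in a Bxb1-sfGFP-TEVs-SsrA fusion, so cleavage stabilises Bxb1 and speeds flipping of a recombination array, read by NGS. The value is the raw area under the fraction-flipped curve over 0-4 h after rhamnose induction (AUC4h), with ≥20 reads per time point. It is not background-subtracted; inactive controls average about 0.047.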
# 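Further: Bxb1 expression induced with 0.2% (w/v) L-rhamnose at OD600 near 0.5, cultures sampled hourly, flipped fraction per protease–substrate barcode pair counted by paired-end Illumina sequencing.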
Variant,area with substrate ENLAFQS,area with substrate ENLDFQS,area with substrate ENLFFQS,area with substrate ENLHFQS,area with substrate ENLIFQS,area with substrate ENLKFQS,area with substrate ENLLFQS,area with substrate ENLNFQS,area with substrate ENLPFQS,area with substrate ENLRFQS,area with substrate ENLSFQS,area with substrate ENLVFQS,area with substrate ENLCFQS,area with substrate ENLEFQS,area with substrate ENLQFQS,area with substrate ENLTFQS,area with substrate ENLGFQS,area with substrate ENLMFQS,area with substrate ENLWFQS
MGESLFKGPRDYNPISSSICHLTNESDGHTTSLYGIGFGPFIITNKHLFRRNNGTLVVQSLHGVFKVKDTTTLQQHLVDGRDMIIIRMPKDFPPFPQKLKFREPQREERICLVTTNFQTKSMSSMWSDTSCTFPSGDGIFWKHWIQTKDGQCGSPLVSTRDGFIVGIHSASNFTNTNNYFTSVPKNFMELLTNQEAQQWVSGWRLNADSVLWGGHKVFMVKPEEPFQPVKEATQL [V126W],0.0657,0.057,0.0995,0.064,0.0807,0.0918,0.0687,0.0609,0.0423,0.0847,0.0594,0.0599,–,–,–,–,–,–,–
MGESLFKGPRDYNPISSSICHLTNESDGHTTSLYGIGFGPFIITNKHLFRRNNGTLVVQSLHGVFKVKDTTTLQQHLVDGRDMIIIRMPKDFPPFPQKLKFREPQREERICLVTTNFQTKSMSSMVDDTSCTFPSGDGIFWKHWIQTKDGQCGSPLVSTRDGFIVGIHSASNFTNTNNYFTSVPKNFMELLTNQEAQQWVSGWRLNADSVLWGGHKVFMVKPEEPFQPVKEATQL [S127D],0.0758,0.058,0.0786,0.0561,0.0791,0.0773,0.0781,0.0732,0.0755,0.069,–,0.073,0.0694,0.0649,0.0754,0.0631,–,–,–
MGESLFKGPRDYNPISSSICHLTNESDGHTTSLYGIGFGPFIITNKHLFRRNNGTLVVQSLHGVFKVKDTTTLQQHLVDGRDMIIIRMPKDFPPFPQKLKFREPQREERICLVTTNFQTKSMSSMVPDTSCTFPSGDGIFWKHWIQTKDGQCGSPLVSTRDGFIVGIHSASNFTNTNNYFTSVPKNFMELLTNQEAQQWVSGWRLNADSVLWGGHKVFMVKPEEPFQPVKEATQL [S127P],0.072,0.0563,0.0804,0.0759,0.0637,0.0913,0.0667,0.0636,0.0627,0.061,0.0716,0.0659,0.0778,0.0606,0.0681,–,0.069,0.0655,–
MGESLFKGPRDYNPISSSICHLTNESDGHTTSLYGIGFGPFIITNKHLFRRNNGTLVVQSLHGVFKVKDTTTLQQHLVDGRDMIIIRMPKDFPPFPQKLKFREPQREERICLVTTNFQTKSMSSMVSDQSCTFPSGDGIFWKHWIQTKDGQCGSPLVSTRDGFIVGIHSASNFTNTNNYFTSVPKNFMELLTNQEAQQWVSGWRLNADSVLWGGHKVFMVKPEEPFQPVKEATQL [T129Q],0.0769,0.0757,0.0648,0.0512,0.0737,0.0593,0.0605,0.0621,0.0598,–,0.0624,0.072,–,–,–,–,0.0559,–,0.0625
MGESLFKGPRDYNPISSSICHLTNESDGHTTSLYGIGFGPFIITNKHLFRRNNGTLVVQSLHGVFKVKDTTTLQQHLVDGRDMIIIRMPKDFPPFPQKLKFREPQREERICLVTTNFQTKSMSSMVSDTSCVFPSGDGIFWKHWIQTKDGQCGSPLVSTRDGFIVGIHSASNFTNTNNYFTSVPKNFMELLTNQEAQQWVSGWRLNADSVLWGGHKVFMVKPEEPFQPVKEATQL [T132V],0.106,0.0628,0.0869,0.0596,0.0849,0.0674,0.07,0.0732,0.0566,0.0707,0.0536,–,–,0.0424,–,–,0.0802,0.0722,0.0591
MGESLFKGPRDYNPISSSICHLTNESDGHTTSLYGIGFGPFIITNKHLFRRNNGTLVVQSLHGVFKVKDTTTLQQHLVDGRDMIIIRMPKDFPPFPQKLKFREPQREERICLVTTNFQTKSMSSMVSDTSCTEPSGDGIFWKHWIQTKDGQCGSPLVSTRDGFIVGIHSASNFTNTNNYFTSVPKNFMELLTNQEAQQWVSGWRLNADSVLWGGHKVFMVKPEEPFQPVKEATQL [F133E],0.0524,0.0579,0.101,0.0708,0.111,0.0921,0.0703,0.0558,0.0433,0.088,0.0947,0.117,0.0696,–,–,–,0.0694,–,0.0643
MGESLFKGPRDYNPISSSICHLTNESDGHTTSLYGIGFGPFIITNKHLFRRNNGTLVVQSLHGVFKVKDTTTLQQHLVDGRDMIIIRMPKDFPPFPQKLKFREPQREERICLVTTNFQTKSMSSMVSDTSCTNPSGDGIFWKHWIQTKDGQCGSPLVSTRDGFIVGIHSASNFTNTNNYFTSVPKNFMELLTNQEAQQWVSGWRLNADSVLWGGHKVFMVKPEEPFQPVKEATQL [F133N],0.0826,0.0578,0.082,0.0705,0.0766,0.0949,0.0955,0.0673,0.0601,–,0.066,–,–,–,–,–,0.0679,0.0683,–
MGESLFKGPRDYNPISSSICHLTNESDGHTTSLYGIGFGPFIITNKHLFRRNNGTLVVQSLHGVFKVKDTTTLQQHLVDGRDMIIIRMPKDFPPFPQKLKFREPQREERICLVTTNFQTKSMSSMVSDTSCTFPAGDGIFWKHWIQTKDGQCGSPLVSTRDGFIVGIHSASNFTNTNNYFTSVPKNFMELLTNQEAQQWVSGWRLNADSVLWGGHKVFMVKPEEPFQPVKEATQL [S135A],0.0625,0.0578,–,0.0435,0.0592,0.0671,0.069,0.0692,0.0623,0.0645,0.0603,–,0.056,0.0591,–,–,0.083,0.0554,0.0506
MGESLFKGPRDYNPISSSICHLTNESDGHTTSLYGIGFGPFIITNKHLFRRNNGTLVVQSLHGVFKVKDTTTLQQHLVDGRDMIIIRMPKDFPPFPQKLKFREPQREERICLVTTNFQTKSMSSMVSDTSCTFPSGLGIFWKHWIQTKDGQCGSPLVSTRDGFIVGIHSASNFTNTNNYFTSVPKNFMELLTNQEAQQWVSGWRLNADSVLWGGHKVFMVKPEEPFQPVKEATQL [D137L],0.087,–,0.0796,–,0.074,0.0835,–,0.0757,0.0721,0.0593,0.0654,0.0843,0.0819,0.0749,–,0.067,–,–,–
